Screen size: about 310,000 compounds; about 14,000 (4.5%) showed an effect of 50% or more. The effect is printed as a negative number. This is one part of the list.
What follows are compounds tested against human ether-à-go-go-related gene (hERG) potassium channel (human, UniProt Q12809) (assay: primary screen, population patch clamp on CHO cells stably expressing hERG).
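Note: peak tail current of the secondary pulse compared with the same well before compound.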

Chain of human ether-à-go-go-related gene (hERG) potassium channel (Q12809 whole entry, looked up): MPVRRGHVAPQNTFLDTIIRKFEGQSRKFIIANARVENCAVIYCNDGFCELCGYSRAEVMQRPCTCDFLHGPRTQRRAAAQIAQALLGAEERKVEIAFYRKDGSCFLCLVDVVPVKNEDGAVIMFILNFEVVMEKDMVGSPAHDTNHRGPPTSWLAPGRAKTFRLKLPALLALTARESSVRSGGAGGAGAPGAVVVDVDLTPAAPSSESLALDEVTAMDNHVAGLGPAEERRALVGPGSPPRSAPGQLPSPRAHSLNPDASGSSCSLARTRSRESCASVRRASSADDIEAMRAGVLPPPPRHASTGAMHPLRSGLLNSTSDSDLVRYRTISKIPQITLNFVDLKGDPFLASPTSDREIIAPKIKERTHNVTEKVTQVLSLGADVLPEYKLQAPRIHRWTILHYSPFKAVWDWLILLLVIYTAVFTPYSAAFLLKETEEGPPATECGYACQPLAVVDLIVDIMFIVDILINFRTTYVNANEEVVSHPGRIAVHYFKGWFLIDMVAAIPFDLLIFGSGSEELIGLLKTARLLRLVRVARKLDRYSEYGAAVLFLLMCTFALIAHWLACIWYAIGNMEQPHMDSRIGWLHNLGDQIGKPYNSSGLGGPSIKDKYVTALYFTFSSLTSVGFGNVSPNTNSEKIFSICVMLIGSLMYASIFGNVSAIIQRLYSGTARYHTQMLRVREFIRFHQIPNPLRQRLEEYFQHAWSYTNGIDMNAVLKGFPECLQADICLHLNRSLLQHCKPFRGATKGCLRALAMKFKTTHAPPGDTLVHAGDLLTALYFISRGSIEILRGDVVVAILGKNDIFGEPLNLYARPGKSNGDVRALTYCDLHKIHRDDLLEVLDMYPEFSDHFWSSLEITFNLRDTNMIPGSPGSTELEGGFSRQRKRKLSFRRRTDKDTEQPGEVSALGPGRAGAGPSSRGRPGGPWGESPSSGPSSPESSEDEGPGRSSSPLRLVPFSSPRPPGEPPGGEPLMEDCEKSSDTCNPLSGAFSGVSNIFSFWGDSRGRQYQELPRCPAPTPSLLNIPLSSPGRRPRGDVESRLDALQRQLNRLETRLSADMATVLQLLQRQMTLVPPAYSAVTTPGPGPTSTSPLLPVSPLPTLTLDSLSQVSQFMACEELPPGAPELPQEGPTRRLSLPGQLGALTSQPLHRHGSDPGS

Row | SMILES | hERG current change (%, negative = inhibition) at 10uM [%]
1 | CC(NCc1cccnc1)c1ccccc1 (centres unmarked) | 18.7
2 | O=C(Nc1ccc2c(c1)OCO2)C(c1ccc(Cl)cc1)N1CCC2(CC1)OCCO2 (centres unmarked) | -42.6
3 | CCn1cc(-c2ccccc2)c(C(=O)O)c1-c1ccc(OC)cc1 | 13.1
4 | O=C(C1=C[C@@H]2[C@H]3C(=O)N(c4ccccc4)C(=O)[C@H]3[C@@H](C(=O)c3ccc(Cl)cc3)N2C=C1)c1ccccc1 | 6.84
5 | Cc1cccc(NC(=S)NC(NC(=O)OCc2ccccc2)C(Cl)(Cl)Cl)c1 (centres unmarked) | 9.47
6 | CC(C)CCOCC(=O)Oc1ccccc1C(=O)O | 9.05
7 | O=C(Oc1ccc2ccccc2c1)C1CCC1 | 17
8 | CCN(C(=O)CN1C(=O)/C(=C/c2ccccc2F)SC1=S)C1CCS(=O)(=O)C1 (centres unmarked) | -1.57
9 | Cl.c1ccc(CNC2=NCCCCC2)cc1 | -5.64
10 | CCc1cccc2c(C(=O)C(F)(F)F)cn(CC(=O)N3CCOCC3)c12 | 5.08
11 | Cc1ccc(C2(c3ccccc3)NC(=O)N(CC(=O)N(C)C3CCS(=O)(=O)C3)C2=O)cc1C (centres unmarked) | -22
12 | CCn1c(SCC(=O)NCC2CCCO2)nc2ccccc21 (centres unmarked) | -4.19
13 | CC(NC(=O)/C(=C/c1ccc(OC(F)F)cc1)c1ccccc1)c1ccccc1 (centres unmarked) | -33.1
14 | COc1cccc(-c2c3c([nH]c(=O)c2C#N)CCc2cc(OC)ccc2-3)c1 | 17.9
15 | Cc1ccccc1NC(=O)CSc1nnc(-c2ccccc2)n1-c1ccccc1 | -51.4
16 | Cc1nc2nc(CSc3nc4ccccc4s3)cc(=O)n2[nH]1 | 21.4
17 | O=C(Oc1ccccc1O)c1cccc2ccccc12 | 11.6
18 | COc1ccc(C(=O)NNC(=O)CN2CCC(n3nnc4cc(F)ccc43)CC2)cc1 | -18.4
19 | CCCCOP(=O)(c1ccc(N(C)C)cc1)C(O)c1ccc(N(C)C)cc1 (centres unmarked) | -5.3
20 | Cl.Fc1ccc(Cn2nnnc2CN2CCc3ccccc3C2)cc1 | -10.6
21 | Cc1cc(S(=O)(=O)N(Cc2ccccc2Cl)c2ccc3c(c2)CCC3)ccc1-n1cnnn1 | 8.67

Row | SMILES | hERG current change (%, negative = inhibition) at 10uM [%]
22 | CN(CC(=O)Nc1cccc(F)c1)C(=O)c1cccc(S(=O)(=O)N2CC3(C)CC2CC(C)(C)C3)c1 (centres unmarked) | 21.3
23 | O=C(Nc1sc2c(c1C(=O)NCc1cccnc1)CCCC2)c1ccco1 | -7.77
24 | Cc1ccc(C)c(N2CCN(C(=O)Cn3ncn4cccc4c3=O)CC2)c1 | -4.56
25 | COc1ccc(/C=C2/SC(=S)N(CCC(=O)O)C2=O)cc1 | -6.73
26 | O=C(CSCc1ccccc1)Nc1ccccc1C(=O)Nc1ccc(C(=O)O)cc1 | 9.88
27 | CCN1C(=O)[C@@H]2[C@@H](c3ccc(-c4ccc5c(c4)OCO5)c(OC)c3)N3CCCC[C@@]3(C(=O)OC)[C@@H]2C1=O.O=C(O)C(F)(F)F | 0.936
28 | Cc1nn(-c2ccc(N3CCOCC3)nn2)c(C)c1CCC(=O)NCc1ccccc1 | 0.347
29 | CCC(C)NC(=O)c1cn(CC)c2ccc(S(=O)(=O)N3CCCCCC3)cc2c1=O (centres unmarked) | -17.2
30 | COCCN(C(=O)CSc1n[nH]c(-c2ccccc2)n1)c1c(N)n(Cc2ccccc2)c(=O)[nH]c1=O | -16.9
31 | O=C(CCNC(=O)c1ccccc1Cl)Nc1ccc(S(=O)(=O)Nc2ncccn2)cc1 | 5.89
32 | COc1ccc(SC[C@H](Cc2ccccc2)N2CC[C@@H](O)CCC2=O)cc1 | -8.62
33 | C=CCC1(Cl)C(=O)C(Cl)=C(N2CCN(C)CC2)C1(OC)OC (centres unmarked) | 24.9
34 | COc1ccc(S(=O)(=O)N2CCCOC2CNC(=O)C(=O)NCc2ccco2)cc1 (centres unmarked) | -22
35 | Cc1cccc(NS(=O)(=O)c2cccc(C(=O)NNC(=O)c3ccccc3O)c2)c1 | 8.52
36 | COCC(C)NC(=O)CSc1ncnc2sc(-c3ccccc3)cc12 (centres unmarked) | -10.1
37 | COC(=O)c1c(C)oc2cc(Br)c(OCC(=O)C(C)(C)C)cc12 | 6.12
38 | CC(=O)c1ccc(OC(C)c2nc3ccccc3s2)cc1 (centres unmarked) | -15.8
39 | C=CCN(C(=O)CCC(=O)Nc1cc(C)on1)C(C(=O)NC1CCCC1)c1ccc(CC)cc1 (centres unmarked) | -17.5
40 | Nc1ncc(Br)cc1S(=O)(=O)Nc1cc(C(F)(F)F)cc(C(F)(F)F)c1 | 18.9
41 | O=C(O)C1Cc2ccccc2CN1C(=O)c1ccccc1Cl (centres unmarked) | 15.4
42 | COc1cccc(N2CCN(C3C4CC5CC(C4)CC3C5)CC2)c1 (centres unmarked) | 2.54

Row | SMILES | hERG current change (%, negative = inhibition) at 10uM [%]
43 | Cc1ccc(-n2cnc3c(sc4nc(N5CCOCC5)c5c(c43)CCCC5)c2=O)cc1 | 20.6
44 | O=C(c1cc([N+](=O)[O-])ccc1N1CCNCC1)N1CCOCC1 | 4.75
45 | CCOC(=O)C1C(=O)NC(c2ccccc2)=NC1c1ccccc1 (centres unmarked) | 8.01
46 | COC(=O)c1cccc(NC(=O)CC2NCCNC2=O)c1 (centres unmarked) | -17.9
47 | Cc1cc(C(=O)N2CCCC(N3CCN(c4cccc(C(F)(F)F)c4)CC3)C2)no1 (centres unmarked) | -2.14
48 | Cc1ccc(Nc2nc(N)nc(CSc3nnc(C)s3)n2)cc1 | -10.1
49 | O=C(CN1C(=O)CSc2ccc(S(=O)(=O)N3CCOCC3)cc21)N1CCCCC1 | 15.1
50 | COc1cnc(-c2cccc(C(F)(F)F)c2)nc1OC | 26.6
51 | O=C(CSc1ncnc2ccccc12)Nc1ccc2c(c1)OCCO2 | 5.48
52 | Cc1cc(C(=O)N2CCCC(CCC(=O)N3CCN(c4ccccn4)CC3)C2)c(C)o1 (centres unmarked) | -9.16
53 | COc1ccc(NC(=O)COC(=O)c2ccc(-n3nc(C)cc3C)cc2)cc1OC | 13.1
54 | CC(Oc1ccccc1)C(=O)N=C1SC2CS(=O)(=O)CC2N1Cc1ccc(F)cc1 (centres unmarked) | -24.6
55 | COc1ccc(-c2nc(SC(CC(=O)NCCN3CCOCC3)c3cccs3)n[nH]2)cc1 (centres unmarked) | 1.08
56 | COc1ccc(/C=N\NC(=O)c2ccccc2F)cc1COc1ccc(F)cc1 | 27.1
57 | Cc1c(C(=O)O)cccc1-n1c(C)cc(/C=N/NC(=O)c2cc3ccccc3o2)c1C | 13.1
58 | N#CC(C#N)=C(N)c1cccnc1 | 27.2
59 | CCCCC(=O)N1CCN(c2nc3ccc(F)cc3s2)CC1 | -65.3
60 | CN(C)C=O.O=C(COC(=O)c1ccc(S(=O)(=O)N2CCCC2)cc1)Nc1cccnc1Cl | 7.25
61 | CCO[C@@H]1OC(C(=O)NCc2nc3ccccc3[nH]2)=C[C@H](c2ccccc2)[C@H]1CCCO | -25.4
62 | Cc1ccccc1CNC(=O)C(=O)NCCC1CCCCN1S(=O)(=O)c1ccccc1 (centres unmarked) | -6.46
63 | CC1CC1C(=O)OCc1cc(=O)n2cc(Br)ccc2n1 (centres unmarked) | -16.2

Row | SMILES | hERG current change (%, negative = inhibition) at 10uM [%]
64 | CC(=O)Nc1ccc(NC(=O)COC(=O)C2(c3ccc(Cl)cc3)CCCC2)cc1 | 2.64
65 | N#CCSc1nnc(COc2ccccc2)n1-c1ccccc1 | -10.7
66 | Cc1ccc(S(=O)(=O)c2nc(S(C)(=O)=O)sc2N2CC(C)OC(C)C2)cc1 (centres unmarked) | 5.46
67 | COC(=O)c1cc(C(=O)Cc2ccccc2)c[nH]1 | -10.8
68 | CC1CCCCN1S(=O)(=O)Cc1ccccc1Cl (centres unmarked) | 6.35
69 | Cc1ccccc1NC(=O)Cc1nc(COC(=O)c2ccc(Cl)c(S(N)(=O)=O)c2)cs1 | -60.9
70 | CCC1(C(=O)OC)NC(c2ccco2)C2C(=O)N(c3ccc(C)cc3)C(=O)C21 (centres unmarked) | 9.07
71 | COc1ccc(CNC(=O)C/C(C)=N/NC(=O)c2ccc([N+](=O)[O-])cc2Cl)cc1 | -20.2
72 | O=C(O)CCNC(=O)/C(=C/C=C/c1ccccc1)NC(=O)c1ccccc1 | 16.6
73 | C=CCc1cccc2ccc(=O)oc12 | -3.56
74 | Cc1nc2ccc(NC(=O)c3cc([N+](=O)[O-])cc([N+](=O)[O-])c3Cl)cc2s1 | 11.4
75 | COc1ccc(/C=N/NC(=O)c2cc(-c3cccc(C)c3)nc3ccccc23)cc1O | 16.6
76 | O=C(COc1ncnc2cc([N+](=O)[O-])ccc12)N(CCc1ccccc1)Cc1ccccc1 | 7.35
77 | O=C(Nc1ccc(N2CCCCC2)cc1)c1ccccc1 | 15.5
78 | Nc1nc(-c2cc(O)ccc2[N+](=O)[O-])cc(-c2ccccc2)c1[N+](=O)[O-] | 18.1
79 | Cc1cc(CN2CCCC(C(=O)Nc3cccc(-n4cccn4)c3)C2)cc(C)c1O (centres unmarked) | -42
80 | CCOC(=O)C1CCN(S(=O)(=O)c2cccc(-c3cn4cccc(C)c4n3)c2)CC1 | -21.3
81 | CCOCCCNC(=S)Nc1ccc(S(N)(=O)=O)cc1 | 8.83
82 | CC(C)S(=O)(=O)c1csc(NC(=O)Nc2cccc([N+](=O)[O-])c2)c1Cl | -36.9
83 | CCCC(=O)Nc1ccc(Cl)c(NC(=O)C(C)(C)C)c1 | -9.68

From PMC4336329 (PLoS ONE, 2015)
